Test results from PubChem BioAssay AID463173 (ICCB-Longwood Screening Facility, Harvard Medical School, 2010).
Hit rate of the full screen: of about 52,000 compounds, about 4,300 (8.3%) were called active. No stated cut-off is given here; in the data, active means survival mostly below about 52% (no sharp cut-off); inactive means mostly above about 56%. The list shows a part of the results.

Tested on: DeltatarO mutant
Test: growth inhibition of S. aureus wild type versus tarO mutant, primary screen, teichoic acid synthesis inhibitors, RN4220, OD600 (AID 463173)
Conditions: OD600, 18 h, stronger effect = lower value, screened at 18.75 µg/mL (by protocol)

SMILES	survival
O=C1CS(=O)(=O)C2(C(=O)N(Cc3ccccc3)c3ccccc32)N1c1ccc(F)c(Cl)c1 (stereo unspecified)	inactive: 83%
N#Cc1c(NC(=O)CN2CCCCC2)sc2c1CCC2	inactive: 103%
CC(=O)c1ccc(NC(=O)CSc2cn(CC(=O)N(C(C)C)C(C)C)c3ccccc23)cc1	inactive: 68%
CCS(=O)(=O)N1CCc2cc(C(=O)Nc3cccc(C(C)=O)c3)ccc21	inactive: 50%
CCCCN(CC)C(=O)CCNS(=O)(=O)c1ccc2c(c1)c(=O)n(C)c(=O)n2C	inactive: 105%
CCCOc1cccc(C2c3c(-c4ccccc4O)n[nH]c3C(=O)N2Cc2ccco2)c1 (stereo unspecified)	active: 2%
O=C1c2ccccc2C(=O)N1CNc1ccccc1C1CC1	inactive: 89%
COc1ccc(C2=NS(=O)(=O)N(C)C(C(=O)N(C)Cc3ccccc3)=C2)cc1OC	inactive: 79%
Cc1ccccc1OCc1nc2ccccc2n1Cc1ccccc1Cl	active: 0%
CC(C)(C)C1(O)CC(C(F)F)=NN1C(=O)c1ccccc1 (stereo unspecified)	inactive: 87%
CCCNC(=O)C1Cc2cc(S(=O)(=O)N3CCCCCC3)ccc2N1C(C)=O (stereo unspecified)	inactive: 94%
CCCNC(=O)Cn1c(=O)c2cccn2c2cccnc21	inactive: 79%
CCCn1cnc2cc(NCc3ccccc3OCC)ccc21	active: 35%
COC(=O)c1ccc(C(=O)OC)c(NC(=O)c2cc3nc(-c4ccc(C)cc4)cc(C(F)(F)F)n3n2)c1	inactive: 83%
CC(C)CCNc1ncnc2c1nnn2Cc1ccccc1	inactive: 73%
COc1ccc(NS(=O)(=O)c2ccc(-c3cnc(C4CC4)o3)cc2)cc1Cl	inactive: 124%
Cc1cc(C)cc(Nc2cc(C(=O)NCCCN(C)C3CCCCC3)c3ccccc3n2)c1	inactive: 62%
Cc1ccc(Cl)cc1N1CCN(C(=O)c2ccc(CS(=O)c3ccccc3)o2)CC1 (stereo unspecified)	inactive: 126%
O=C(CCSCc1cnn(-c2ccccc2)c1-n1cccc1)NCc1ccccc1Cl	active: 54%
COCCNC(=O)c1nn(-c2ccc(C)cc2)c(=O)n(C)c1=O	inactive: 74%
CCc1cc(=O)oc2c(C)c3c(cc12)CN(CCc1ccccc1OC)CO3	inactive: 51%
O=C(O)CCCn1c(=O)oc2ccccc21	inactive: 96%
COCCCNC(=O)c1sc2nc(C)c(C(=O)Nc3ccc(C)cc3C)c(-c3ccccc3Cl)c2c1N	inactive: 61%

SMILES	survival
CCc1ccc2oc(-c3ccc(NC(=O)c4cc5ccccc5o4)cc3)nc2c1	active: 40%
CCCNC(=O)CCCN1C(=O)CCn2nc(-c3cccn3C)cc21	inactive: 89%
COc1ccc(C(=O)NCc2ccc3c(c2)CCN3C(=O)c2ccccc2)cc1	inactive: 84%
Cn1c(=O)c(=O)n(C)c2cc(C(=O)NCc3ccccc3Cl)ccc21	inactive: 70%
O=C(Cn1nc(-c2ccc(Cl)cc2)c2ccccc2c1=O)Nc1cccc(C(F)(F)F)c1	active: 34%
COC(=O)c1scc(-c2ccc(C)cc2)c1S(=O)(=O)N1CCN(c2ccc(C)cc2C)CC1	inactive: 66%
COc1cccc(Nc2nc3ccccc3c3nncn23)c1	inactive: 89%
Cn1c(SCc2cc(=O)c3cc(Cl)ccc3[nH]2)nnc1-c1ccccc1	inactive: 113%
O=C(Nc1sc2c(c1C(=O)c1ccccc1)CCCC2)c1ccco1	inactive: 73%
COc1ccc(C(CNC(=O)c2oc3cc(C)c(Cl)cc3c2C)N2CCCCC2)cc1 (stereo unspecified)	inactive: 87%
Cc1ccc(C2C3=C(CCCC3=O)N(C)C3=C2C(=O)CCC3)cc1	inactive: 86%
COCCNC(=O)CCc1c(C)n(C)c2cc(-c3cc(OC)c(OC)c(OC)c3)nn2c1=O	active: 25%
OC1COCc2nc3ccccc3n2C1 (stereo unspecified)	active: 57%
CC1CCN(S(=O)(=O)c2ccc3nc(NCc4ccccc4)ccc3c2)CC1	inactive: 119%
Cn1ccc2c(OCC(=O)Nc3ccc(OC(F)(F)F)cc3)cccc2c1=O	inactive: 95%
Nc1cc(=O)[nH]c2n[nH]c(=S)n12	inactive: 79%
CC(=O)c1ccc(NS(=O)(=O)c2ccc(Br)s2)cc1	active: 47%
CCCSc1ncc(Cl)c(C(=O)N(Cc2ccccc2)c2ccc(OC)cc2)n1	active: 45%
CC1=Nc2ccc(Cl)cc2C(c2ccccc2)N1CC(=O)NN (stereo unspecified)	inactive: 117%
COc1cccc(NC(=O)N(CCC(C)C)C2CCN(C(C)C)CC2)c1	inactive: 79%
Cc1ccc(CNC(=O)C2CCN(S(=O)(=O)c3ccc4nc5c(c(C(=O)O)c4c3)CC(C)CC5)CC2)cc1 (stereo unspecified)	inactive: 88%
CCc1cnc2c(c1SCC(=O)NCc1ccc(C)cc1)c(=O)n(C)c(=O)n2C	inactive: 70%
CCN(C(=O)c1cccc(Cl)c1)C1CCCCC1	inactive: 104%

SMILES	survival
CCOCCCNC(=O)c1cn(CC)c2ccc(S(=O)(=O)N3CCOCC3)cc2c1=O	inactive: 81%
CCOC(=O)CSc1nc2ccc(NC(=O)COc3ccc(F)cc3)cc2s1	inactive: 106%
CCOC(=O)c1ccc(N2CCN(c3ccccc3OC)CC2)c(NC(=O)Nc2ccc(CC)cc2)c1	inactive: 73%
Cc1cc(C(=O)N2CCN(c3cccc(Cl)c3)CC2)c2c(C)nn(-c3ccccc3Cl)c2n1	inactive: 90%
COc1ccc(CNC(=O)C2=CC(c3ccc(OC)c(OC)c3)=NS(=O)(=O)N2C)cc1	inactive: 67%
O=C(CN1C(=O)CSC1=O)NC1CCCCC1	inactive: 96%
CCn1cc(C(=O)N2CCN(c3cc(Cl)ccc3C)CC2)c(=O)c2cc(S(=O)(=O)N3CCCC3)ccc21	inactive: 93%
COc1ccc(NC(=O)C(C)Sc2nc(C)cc(=O)[nH]2)cc1 (stereo unspecified)	inactive: 101%
O=C(COc1ccccc1)N=Nc1c(O)[nH]c2ccccc12	inactive: 83%
COc1cc(Cl)c(C)cc1NC(=O)c1cc2c(=O)oc3ccccc3c2s1	inactive: 124%
CC(C)(C)C1CCc2c(sc(NC(=O)c3ccco3)c2C(=O)Nc2ccccc2Cl)C1 (stereo unspecified)	inactive: 135%
COc1cc2nc(SCC(=O)Nc3ccccc3C)n3nc(CCn4c(C)nc5ccccc54)nc3c2cc1OC	inactive: 77%
Cc1nnsc1C(=O)Oc1ccc(Cl)cc1	inactive: 86%
O=C(O)CC(NC(=O)c1ccco1)c1ccc(F)cc1 (stereo unspecified)	inactive: 79%
O=C(CSc1nc2c([nH]c3ccccc32)c(=O)n1-c1cccc(Cl)c1)c1ccccc1	active: 47%
O=C(NCc1ccccc1)C(=O)NCC(c1cccs1)S(=O)(=O)c1cccs1 (stereo unspecified)	inactive: 91%
COc1ccc(N2CCN(CCCNC(=O)c3cnn(-c4ccc(C)cc4)c3-n3cccc3)CC2)cc1	inactive: 92%
CCOc1ccc(NC(=O)N(Cc2cn(CC)c3ccccc23)C2CCCCCC2)cc1	active: -12%
COc1ccc(S(=O)(=O)c2c(Nc3ccc(C)cc3C)sc(C(=O)c3ccc(F)cc3)c2N)cc1	inactive: 107%
Cc1cc(C)c(NC(=O)C2CCN(S(=O)(=O)c3c(C)noc3/C=C/c3ccccc3F)CC2)c(C)c1	inactive: 78%
CN(C)c1ccc(C(CNC(=O)c2ccccc2Cl)N2CCCC2)cc1 (stereo unspecified)	inactive: 81%
COc1ccccc1NC(=O)N1CCN(Cc2nc3ccc(C)cc3o2)CC1	inactive: 84%
Cc1cc(C)c(NC(=O)Cn2c(=O)n(CC3CCCO3)c(=O)c3ccccc32)c(C)c1 (stereo unspecified)	inactive: 87%

SMILES	survival
COc1cccc(N2CCN(C3=NS(=O)(=O)C(c4ccc(C)cc4)=C3C)CC2)c1	inactive: 81%
Cc1ccc(Cn2c(=O)n(CCCCC(=O)NCc3ccc4c(c3)OCO4)c(=O)c3ccccc32)cc1	inactive: 102%
CCc1ccccc1S(=O)(=O)Cc1ccc(C(=O)NCCc2ccc(C)cc2)o1	inactive: 87%
Cc1cc(C)cc(C(=O)NCCc2csc(-c3ccc(C(F)(F)F)cc3)n2)c1	inactive: 94%
CCc1ccccc1NC(=O)CSc1ncc2c(n1)-c1cc(Cl)ccc1N(Cc1ccccc1)S2(=O)=O	inactive: 81%
CCOC(=O)c1nnn(-c2nn3nnnc3c3ccccc23)c1C	inactive: 105%
Cc1c(C(=O)OCC2CCCCC2)[nH]c2c1C(=O)CC(c1ccccc1Cl)C2 (stereo unspecified)	inactive: 97%
CCOc1ccc2nc3sc(C(=O)Nc4nonc4C)c(N)c3cc2c1	inactive: 69%
COc1ccc(CCNC(=O)CCc2c(C)nc3c4cccnc4nn3c2C)cc1OC	inactive: 87%
CCCCn1cc(S(=O)(=O)c2ccc(OC)cc2)c(=O)c2cc(F)c(N3CCOCC3)cc21	inactive: 92%
CCc1ccc(-n2nc(C)c3c(C)cc(=O)n(CC(=O)Nc4cc(C)ccc4C)c32)cc1	inactive: 74%
COc1ccc(NC(=O)c2ncn(-c3ccccc3)n2)cc1Cl	inactive: 83%
CCOc1ccc(NC(=O)CC2C(=O)N(c3ccccc3)C(=O)N2CCc2sccc2C)cc1 (stereo unspecified)	inactive: 73%
O=C(Cn1cc(SCc2cccc(Cl)c2)c2ccccc21)N1CCCCC1	inactive: 73%
c1cncc(-c2nnc(SCC3CCCCC3)o2)c1	inactive: 62%
O=C1C2C3c4ccccc4C(c4ccccc43)C2C(=O)N1Cc1ccco1 (stereo unspecified)	inactive: 104%
NC(=O)C1CCN(C(=O)c2cc(-c3ccccc3)on2)CC1	inactive: 98%
Fc1ccc(-c2cc(-c3nc(-c4ccc(Cl)cc4)no3)[nH]n2)cc1	inactive: 87%
COc1ccc(S(=O)(=O)c2c(C(=O)c3ccc(C)c(C)c3)cnc3ccc(C)cc23)cc1	inactive: 81%
Cc1c(C(=O)OC2CCC(C)CC2)[nH]c2c1C(=O)CC(c1ccc(N(C)C)cc1)C2 (stereo unspecified)	inactive: 68%
CCc1ccc(OC(=O)CSc2nnc(-c3ccc(OC)c(OC)c3)o2)cc1	inactive: 69%
Cc1c2cnn(CC(=O)NC(C)C)c(=O)c2c(C)n1Cc1cccc(Cl)c1	inactive: 79%
